Measured values published in ChEMBL document CHEMBL4888484, “Replenishing the malaria drug discovery pipeline: Screening and hit evaluation of the MMV Hit Generation Library 1 (HGL1) against asexual blood stage Plasmodium falciparum ,using a nano luciferase reporter read-out” (2022).
Screen size: about 150,000 compounds; about 540 (0.36%) showed an effect of 50% or more. Some of the results follow.

Each molecule was assayed on Plasmodium falciparum (assay: Primary screen in NF54 nanoGlo assay, in single point, at 2uM, 72h; a lower Z score goes with more inhibition). Details: timepoint 72 hour.
Type: functional, Erythrocyte
`CC(C)CC(=O)Nc1ccc(-n2nc(OCc3ccc(F)cc3)nc2-c2ccco2)cc1` was tested, and the “% Inhibition” value was 8% and the Z score was -0.71. `N#CC1(C(=O)N2CCCO2)CCCCC1` was tested, and the “% Inhibition” value was 3% and the Z score was -0.38. For `O=C(N[C@@H]1[C@H]2CCO[C@H]2[C@H]1Cc1ccccc1)c1cccc(=O)[nH]1`, the “% Inhibition” value was -4% and the Z score was 0.6. For `O=C1CCN(C(=O)c2ccc(C(=O)Nc3ccccc3)cc2)CCN1`, the “% Inhibition” value was -7% and the Z score was 1.23. In the case of `O=c1c2ccccc2ncn1C[C@H]1CC[C@H](C(=O)NC2CCCCCCC2)CC1`, the “% Inhibition” value is reported as -12% and the Z score is reported as 1.48. In the case of `CC(C)c1scnc1-c1nc(-c2cccc(N3CCN(C)CC3)n2)no1`, the “% Inhibition” value is reported as 3% and the Z score is reported as -0.32. In the case of `COCC1(CNS(=O)(=O)c2cc(C)cs2)CCCC1`, the “% Inhibition” value is reported as -10% and the Z score is reported as 1.26. With `Cc1noc(C)c1C(=O)N1CCC[C@H]1c1nc(-c2ccccc2)no1` the “% Inhibition” value was 5% and the Z score was -0.71. In the case of `CC(C)Cc1noc(CN(C)C(=O)CCn2cncn2)n1`, the “% Inhibition” value is reported as 6% and the Z score is reported as -1.13. For `O=C(Nc1cccc(C(F)(F)F)c1)N1C[C@H]2CC[C@@H](C1)NC2`, the “% Inhibition” value was -10% and the Z score was 1.22. With `O=C(Cn1cnc2ccccc21)N1CCN(c2cc(N3CCOCC3)ncn2)CC1` the “% Inhibition” value was -16% and the Z score was 1.37. With `CN(CC(=O)N[C@H]1CC[C@H](Oc2ncccn2)CC1)S(C)(=O)=O` the “% Inhibition” value was -13% and the Z score was 1.51. For `CCOCCN(C)C(=O)NCc1cc(F)cc(Br)c1`, the “% Inhibition” value was 2% and the Z score was -0.19. With `c1ccc(N2CCOCC2)c(CCNc2nccn3cnnc23)c1` the “% Inhibition” value was -9% and the Z score was 1.62. With `CCc1nc(N(CCC(=O)Nc2cccc(C(F)(F)F)c2)CC(C)C)c2ccc(Cl)cc2n1` the “% Inhibition” value was -8% and the Z score was 0.75. With `COCCN(CC(N)=O)C(=O)c1ccc(Cl)cc1F` the “% Inhibition” value was -10% and the Z score was 1.31. In the case of `Cc1csc(NC(=O)C(=O)c2ccc3c(c2)CCC3)n1`, the “% Inhibition” value is reported as -11% and the Z score is reported as 2.38. `COCCCn1c(C)cc(=O)c(C(=O)O)c1CC1CCCC1` was tested, and the “% Inhibition” value was 18% and the Z score was -2.28. In the case of `CCN(C)S(=O)(=O)Nc1cccc(-c2nnsc2Cl)c1`, the “% Inhibition” value is reported as 11% and the Z score is reported as -1.56. In the case of `CCC[C@H](C)N1CC2(CCN(C(=O)c3cccnc3OC)CC2)OC1=O`, the “% Inhibition” value is reported as 4% and the Z score is reported as -0.76. With `CC(=O)N1CCC[C@H](c2noc(-c3onc4c3CCCC4)n2)C1` the “% Inhibition” value was -1% and the Z score was 0.14. For `CO[C@@H](C)CS(=O)(=O)Nc1cnc(C(F)(F)F)nc1`, the “% Inhibition” value was -3% and the Z score was 0.4. For `CN(C)c1ccccc1CN(C)c1cccc(C(=O)O)n1`, the “% Inhibition” value was -11% and the Z score was 2.16. In the case of `CC(CCNC(=O)C1COCCO1)c1cccc(C(F)(F)F)c1` (centres undefined), the “% Inhibition” value is reported as -1% and the Z score is reported as 0.11. `O=C(NC[C@H]1O[C@@H](CO)[C@@H](O)[C@H]1N1CCCCC1)c1ccccc1` was tested, and the “% Inhibition” value was 28% and the Z score was -3.14. For `COC[C@H](NC(=O)c1cn2c(n1)CCC2)c1cccc(Cl)c1`, the “% Inhibition” value was -2% and the Z score was 0.3. With `COCC[C@H]1CN(Cc2ccc(Cl)o2)CCO1` the “% Inhibition” value was 5% and the Z score was -0.71. In the case of `CCN=C(NCc1noc(C)n1)N(C)Cc1sccc1C`, the “% Inhibition” value is reported as -16% and the Z score is reported as 1.54. For `O=C(Cc1ccccc1)N1CCN(c2nc(C3CCC3)nc3ccc(Cl)cc23)CC1`, the “% Inhibition” value was -12% and the Z score was 1.39. For `CC(C)c1ccc(-n2nc(-c3ccccc3)nc2CS(C)(=O)=O)cc1`, the “% Inhibition” value was -21% and the Z score was 3.09. In the case of `Cc1ccc2[nH]c(N3CCC(C(=O)NC4CCCC(C)C4C)CC3)nc2c1` (centres undefined), the “% Inhibition” value is reported as -7% and the Z score is reported as 0.89. `O=C(CN1CCN(c2nccc3occc23)CC1)Nc1nncs1` was tested, and the “% Inhibition” value was -9% and the Z score was 1.72. `CCC(CC)N1CCN(C(=O)[C@@H]2OCCN(C)[C@H]2c2ccccc2)CC1` was tested, and the “% Inhibition” value was -2% and the Z score was 0.31. With `Cc1nnc(-c2ccc3ccn(CC(=O)N4CCN(c5ccccc5)CC4)c3c2)o1` the “% Inhibition” value was -7% and the Z score was 0.82. For `CCc1cccc2c(CCNC(=O)NCCc3nc(C)no3)c[nH]c12`, the “% Inhibition” value was -8% and the Z score was 1.07. With `Cn1cc(CN[C@H]2[C@H](O)[C@H](O)C[C@@H]2c2ccccc2)cn1` the “% Inhibition” value was 35% and the Z score was -3.96. For `Cc1onc(C(=O)NCc2ccc3c(c2)OCO3)c1CN1CCOCC1`, the “% Inhibition” value was -19% and the Z score was 1.91. `O=C1c2ccccc2N[C@]2(C(=O)Nc3ccccc32)N1CCc1ccccc1` was tested, and the “% Inhibition” value was -6% and the Z score was 1.12. With `O=C(NCc1cccc(C(F)(F)F)c1)C1CCC(c2ccc(F)cc2)N(C(=O)c2ccccc2)C1` (centres undefined) the “% Inhibition” value was -16% and the Z score was 1.54. With `CC(C)c1ccc(NC(=O)N2CCC[C@@]3(C2)NC(=O)NC3=O)cc1` the “% Inhibition” value was -1% and the Z score was 0.1. In the case of `C[C@@H](O)[C@H](N)C(=O)N1CCc2[nH]nc(-c3cccc4ccccc34)c2C1`, the “% Inhibition” value is reported as -2% and the Z score is reported as 0.34. With `CCC1(CC)NC(=O)N(Cc2ccn(-c3ccccc3)n2)C1=O` the “% Inhibition” value was 3% and the Z score was -0.49.
